Laboratory results as given in PubChem BioAssay AID2675 (National Center for Advancing Translational Sciences (NCATS), 2010).
Out of some 280,000 compounds screened, about 100 (0.036%) were called active. The shares of active, inactive and inconclusive entries below differ from those in the screen. Calls follow the shape of the dose curve; as a rule, active = well fitted inhibition curve with a large enough effect in the signal ratio, with a control signal flat (not every such curve was filed as active); inconclusive = small, poorly fitted or top-dose-only effect, or effect the other way, or a change in a side signal; inactive = no such curve, though single readings can be large or run the other way; the % refers to the signal ratio. A potency beside an inconclusive call is a rough fit, not a confirmed value. A note “side channel” means that the fit belongs to a control or component signal, not to the main read-out.

The compounds below were run against Muscleblind-like protein 1 (Homo sapiens) (UniProt Q9NR56) (assay: qHTS Assay for Inhibitors of MBNL1-poly(CUG) RNA binding). Conditions: TR-FRET MBNL1-His/biotin-(CUG)12 binding, 665/545 ratio; series mostly up to 57.5 µM.
How it was run: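 Compounds (final 92 nM to 58 uM) are added to His-tagged MBNL1 and biotin-(CUG)12, then terbium anti-His antibody and streptavidin-XL665 (5 nM final). After 60 min at room temperature, the 665/545 nm ratio is read.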
Potency is read from the fitted curve at half-maximal effect; tags tell the direction and shape of the fitted curve or compound fluorescence and quenching.

Chain of UniProt Q9NR56 (Q9NR56 whole entry, looked up): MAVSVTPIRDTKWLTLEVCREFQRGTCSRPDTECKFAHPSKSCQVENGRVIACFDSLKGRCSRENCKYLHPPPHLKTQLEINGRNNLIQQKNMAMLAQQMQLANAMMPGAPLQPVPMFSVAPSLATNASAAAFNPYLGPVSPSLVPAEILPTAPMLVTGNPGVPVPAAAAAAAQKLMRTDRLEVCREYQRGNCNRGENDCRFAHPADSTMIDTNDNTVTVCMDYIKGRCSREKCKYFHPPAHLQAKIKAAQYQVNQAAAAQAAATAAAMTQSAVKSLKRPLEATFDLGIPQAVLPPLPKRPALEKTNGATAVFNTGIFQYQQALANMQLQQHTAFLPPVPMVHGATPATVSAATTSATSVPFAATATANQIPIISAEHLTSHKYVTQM

Structure (SMILES)	Potency
Nc1nc(NCCCN2CCOCC2)nc(NCc2ccccc2)c1[N+](=O)[O-]	inconclusive: 20 µM [quencher, side channel, partial curve]
O=C(CN1C(=O)/C(=C/c2ccccc2Cl)SC1=S)NC1C=CS(=O)(=O)C1 (stereo not given)	inconclusive: 12.6 µM [quencher, side channel, partial curve]
CSC1=NCCN1C(=O)c1ccc(C)cc1	inactive
CCCC(CCC(=O)Nc1cccc([N+](=O)[O-])c1)C(=O)O (stereo not given)	inconclusive: 17.8 µM [quencher, side channel, partial curve]
O=[N+]([O-])c1cc(S(=O)(=O)CCCN2CCOCC2)ccc1F	inconclusive: 17.8 µM [quencher, side channel, partial curve]
CC1=NOC(=O)/C1=C\c1ccc(-c2ccccc2Br)o1	inactive
C/C(=N/NC(=O)CN1CCN(Cc2ccccc2Cl)CC1)c1cccnc1	inconclusive: 79.4 µM [inhibitor, single point]
O=C(CSc1n[nH]c(-c2ccncc2)n1)Nc1ccccn1	inconclusive: 63.1 µM [inhibitor, partial curve]
CC1CCCCC1NCc1cccc([N+](=O)[O-])c1 (stereo not given)	inconclusive: 17.8 µM [quencher, side channel, partial curve]
Brc1cc(/C=N/n2cnnc2)oc1Br	inconclusive: 28.2 µM [quencher, single point]
COc1cccc(NC(=O)CSc2nc3ncc(Br)cc3[nH]2)c1	inconclusive: 39.8 µM [fluorescent, single point]
O=C(CSc1ncccn1)N/N=C/c1ccccc1[N+](=O)[O-]	inconclusive: 15.8 µM [quencher, side channel, partial curve]
O=C(NNS(=O)(=O)Cc1ccccc1)c1ccc([N+](=O)[O-])cc1	inconclusive: 3.98 µM [quencher, side channel, full curve]
COc1ccc(-n2c(Cc3cccn3C)nnc2SCC(=O)NC2CCCC2)cc1	inconclusive: 22.4 µM [quencher, side channel, single point]
NC(=O)C(=CNc1nc(-c2ccc(Cl)c(Cl)c2)cs1)C(N)=O	inconclusive: 35.5 µM [quencher, side channel, single point]
COc1ccccc1OCCn1cc(C=O)c2ccccc21	inactive
COc1cc(C(=S)N2CCOCC2)ccc1OC(=O)c1ccccc1[N+](=O)[O-]	inconclusive: 17.8 µM [quencher, partial curve]
Cc1[nH]c2ccccc2c1/C=C(\C#N)C(=O)NCC1CCCO1 (stereo not given)	inconclusive: 14.1 µM [quencher, side channel, partial curve]
COc1ccc(/C=N/Nc2ncnc(Cl)c2N)cc1OC	inconclusive: 28.2 µM [quencher, side channel, partial curve]
Nc1nc(NCC(=O)O)nc(NC2CCCCC2)c1[N+](=O)[O-]	inconclusive: 17.8 µM [quencher, side channel, partial curve]

Structure (SMILES)	Potency
Cn1c(N2CCN(C(=O)Nc3ccc(F)cc3)CC2)nc2ccccc21	inconclusive: 158 µM [inhibitor, single point]
CCOc1ccc(S(=O)(=O)N(CC(=O)N2CCc3ccccc32)Cc2ccco2)cc1	inactive
CCC(=O)OCCNc1cc(Sc2nccn2C)c2nonc2c1[N+](=O)[O-]	inconclusive: 3.55 µM [quencher, side channel, full curve]
CCOc1cc(CNc2ncnc3nc[nH]c23)ccc1OC	inconclusive: 39.8 µM [quencher, side channel, single point]
O=C(N/N=C/c1c[nH]c2ccc(Br)cc12)c1ccccn1	inconclusive: 44.7 µM [quencher, side channel, single point]
O=C(O)C[C@@H]1C(=O)O[C@@H]2C(COC(=O)c3cc(O)c(O)c(O)c3)O[C@@H](OC(=O)c3cc(O)c(O)c(O)c3)[C@@H](OC(=O)c3cc(O)c(O)c4c3[C@H]1[C@H](O)C(=O)O4)[C@H]2OC(=O)c1cc(O)c(O)c(O)c1 (stereo not given in full)	inconclusive: 0.1 µM [inhibitor, full curve, poor fit]
CCOC(=O)C(C(=O)OCC)C(C(=O)OCC)N1CCOCC1 (stereo not given)	inactive
O=[N+]([O-])c1ccc(OCC(O)CN2CCN(c3ccccc3F)CC2)cc1 (stereo not given)	inconclusive: 8.91 µM [quencher, side channel, full curve]
COc1ccc(-c2nnc3ccc(SCC(=O)N4CCOCC4)nn23)cc1	inconclusive: 39.8 µM [fluorescent, side channel, single point]
O=C(CSc1ccsc1[N+](=O)[O-])N1CCCCC1	inconclusive: 11.2 µM [quencher, side channel, partial curve]
CC1CCCC(C)N1C(=O)COC(=O)c1nn(C)c(=O)c2ccccc12 (stereo not given)	inconclusive: 25.1 µM [quencher, side channel, single point]
CN(C)c1ccc(/C=N/NC(=O)c2sccc2-n2cccc2)cc1	inconclusive: 35.5 µM [quencher, side channel, single point]
COC(=O)C(C)Oc1cc(OC(C)C(=O)OC)c2c(-c3ccccc3)cc(=O)oc2c1 (stereo not given)	inactive
COc1ccc(/C=N/NC(=O)c2c(C)nc3ccccn23)cc1[N+](=O)[O-]	inconclusive: 3.98 µM [quencher, side channel, full curve]
COC(=O)CC1Oc2ccccc2N(Cc2ccccc2)C1=O (stereo not given)	inconclusive: 6.31 µM [quencher, side channel, full curve, poor fit]
COc1ccc(-c2cc(=O)oc3cc(OC(C)C(=O)NCC4CCC(C(=O)O)CC4)ccc23)cc1 (stereo not given)	inconclusive: 12.6 µM [quencher, partial curve]
CCOc1ccc(-n2nc3cc(C)c(N)cc3n2)cc1	inactive
Cn1c(=O)c2c(n(C)c1=O)=NC1(CCCCC1)ON=2	inconclusive: 15.8 µM [quencher, partial curve]
COCCCN1C2=C(C(=O)CC(C)(C)C2)C(c2ccc(OC)c(OC)c2)C2=C1CC(C)(C)CC2=O	inconclusive: 31.6 µM [quencher, side channel, single point]
O=C(N/C(=C\c1ccc([N+](=O)[O-])cc1)C(=O)N1CCOCC1)c1ccco1	inconclusive: 28.2 µM [quencher, side channel, partial curve]

Structure (SMILES)	Potency
CC1C(=O)N(Cc2ccc([N+](=O)[O-])cc2)c2ccccc2N1C(=O)c1c(F)cccc1F (stereo not given)	inactive
NC(=O)c1ccc(NCc2ccco2)c([N+](=O)[O-])c1	inconclusive: 14.1 µM [quencher, side channel, partial curve]
Cn1c(=O)c([N+](=O)[O-])c(NCc2ccc3c(c2)OCO3)c2ccccc21	inconclusive: 14.1 µM [quencher, side channel, partial curve]
COCCCN1C(=O)c2ccc(C(=O)Nc3ccc(OC)cc3OC)cc2C1=O	inconclusive: 10 µM [quencher, side channel, partial curve]
COc1cccc2cc3c(=O)oc4ccccc4c3nc12	inconclusive: 3.55 µM [quencher, single point]
CCCCOC(=O)CSc1nc(N)c(C#N)c(-c2ccc(OC)cc2)c1C#N	inconclusive: 35.5 µM [fluorescent, single point]
CC(C(=O)Nc1ccccc1-c1ccccc1)N1CCN(Cc2ccccc2)CC1 (stereo not given)	inactive
Cc1nnc(SCCn2c(N3CCN(C)CC3)nc3c2c(=O)[nH]c(=O)n3C)s1	inactive
COc1ccc(-c2cn3ccccc3n2)cc1OC	inactive
CC(C)n1cc(CN2CCCC(CO)(Cc3cccc(Cl)c3)C2)cn1 (stereo not given)	inconclusive: 158 µM [inhibitor, partial curve]
CCOc1ccc(CNS(=O)(=O)c2cc(CN3C(=O)c4cccnc4C3=O)ccc2OC)cc1	inconclusive: 28.2 µM [quencher, side channel, partial curve]
COCCNC(=O)C1CC(c2ccc([N+](=O)[O-])cc2)=NO1 (stereo not given)	inconclusive: 15.8 µM [quencher, partial curve]
CCOC(=O)C1CCN(C(=O)c2ccc3c(c2)S(=O)(=O)c2ccccc2C3=O)CC1	inconclusive: 12.6 µM [quencher, side channel, partial curve]
COc1ccc(-c2cc(=O)oc3cc(OCC(=O)N4CCOCC4)ccc23)cc1	inconclusive: 7.94 µM [quencher, partial curve]
COc1cc([N+](=O)[O-])ccc1-c1ccc(/C=N\n2cnnc2)o1	inconclusive: 2.82 µM [quencher, side channel, full curve]
CCC(Oc1ccccc1)C(=O)Nc1ncc([N+](=O)[O-])s1 (stereo not given)	inconclusive: 12.6 µM [quencher, side channel, partial curve]
Cc1c2ccccc2nc2c(F)c(NC(C)C)c(F)c(F)c12	inactive
CCCC(=O)NC(c1ccc(OC)cc1)c1ccc2cccnc2c1O (stereo not given)	inactive
O=C(O)[C@@H]1CCCN1C(=O)COc1ccc2c3c(c(=O)oc2c1)CCC3	inactive
CC[C@H](C)[C@@H]1NC(=O)c2cc([N+](=O)[O-])cc(I)c2SC[C@@H](C(N)=O)NC(=O)[C@H](CCCCN)NC1=O	inconclusive: 10 µM [quencher, side channel, partial curve]
